# Results as given in the RNAGym collection of RNA variant scans (doi:10.1073/pnas.2313332121).
# This sample is rich in variants without activity.
# B1: TPR 5TU (parent)
# chain: GGAUCUUCUCGAUCUAACAAAAAAGACAAAUCUGCCACAAAGCUUGAGAGCAUCUUCGGAUGCAGAGGCGGCAGCCUUCGGUGGCGCGAUAGCGCCAACGUUCUCAACUAUGACACGCAAAACGCGUGCUCCGUUGAAUGGAGUUUAUCAUG
# Variants of: B1
# Experiment: polymerase ribozyme fitness, log enrichment relative to wild type (log ratio); higher = more active; in vitro selection for triplet polymerase activity
# Outline: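 Fitness measures genotype enrichment against wild-type enrichment on a logarithmic scale, with inverse-variance-weighted averaging of replicates. The logarithm is base 2, and genotypes were kept only with ≥10 input reads and ≥1 read per output in Illumina sequencing. The sequenced libraries came from one triplicate in vitro selection round, including frozen incubation at −7 °C, of PCR-built, transcribed mutant libraries of each subunit of a heterodimeric triplet polymerase ribozyme.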
row,Variant,polymerase ribozyme fitness (log ratio)
1,A52G C57A A73U,-0.666
2,A52G C57A C72A G81A C85G,≤ -4.2
3,A52G C57A C79U C85A C116U A122G,≤ -4.2
4,A52G C57A G84A,-0.599
5,A52G C57U A60G C85A A115G G136C,≤ -4.2
6,A52G C57U A91U C108G,≤ -4.2
7,A52G C57U C75G A91U C95G C123A,-4.05
8,A52G C69U A120U A138U U144A,≤ -4.2
9,A52G C69U G143A,-2.71
10,A52G C72U C96U C108A A115G U144G,≤ -4.2
11,A52G C72U G81A G86A C103G A122C,≤ -4.2
12,A52G C72U G84U C87G C149G,≤ -4.2
13,A52G C75G U104G,≤ -4.2
14,A52G C75U C79A C103U,≤ -4.2
15,A52G C76A,-0.0301
16,A52G C76U G84C C87G C105A C116A A120U U134C,≤ -4.2
17,A52G C79G,-3.71
18,A52G C85G U104G A115U A147C,≤ -4.2
19,A52G C85U A89G A106G G141U U148G,≤ -4.2
20,A52G C87A,≤ -4.2
21,A52G C87U,-1.3

row,Variant,polymerase ribozyme fitness (log ratio)
1,A52G C87U C116G A122C G136U,-2.85
2,A52G C93U,-1.74
3,A52G C96G A97U U148G,≤ -4.2
4,A52G C96U G100A A120G C132G,≤ -4.2
5,A52G C108G,≤ -4.2
6,A52G C125U C131U G143U U146G,≤ -4.2
7,A52G G58C G59C C96G A150U,-3.59
8,A52G G58C G62U A119G U127C,≤ -4.2
9,A52G G58C G68C,≤ -4.2
10,A52G G62A C76U U145A,-2.04
11,A52G G62C A64C C79A G84A G117C,≤ -4.2
12,A52G G65A C108G,≤ -4.2
13,A52G G67C A147C,≤ -4.2
14,A52G G70A C96A U102G C129G G143A U146A,≤ -4.2
15,A52G G70C C103A A142C,≤ -4.2
16,A52G G71C C85G C118U C132A,≤ -4.2
17,A52G G71C C95A C131A U139A,≤ -4.2
18,A52G G74A C76U G84C C118G G143U A150G,≤ -4.2
19,A52G G74C C87A A113U C125A G140U,≤ -4.2
20,A52G G83A,-0.0714
21,A52G G83A A121G,-0.142

row,Variant,polymerase ribozyme fitness (log ratio)
1,A52G G83U C85A A98G,≤ -4.2
2,A52G G83U C96A U101C G124A U145A C149U,-2.95
3,A52G G83U U104C C114G C125A,≤ -4.2
4,A52G G84A C85U U102G C105U G112A U135G,≤ -4.2
5,A52G G84A C99U G100U U144A,≤ -4.2
6,A52G G86A U102A U135G,≤ -4.2
7,A52G G92U U101A U111A,≤ -4.2
8,A52G G100A,≤ -4.2
9,A52G G100U A107U,≤ -4.2
10,A52G G136U A142G,-3.58
11,A52G G141U,1
12,A52G G141U U145C G152A,-2.27
13,A52G G152C,-3.59
14,A52G U53A G80A G92C,≤ -4.2
15,A52G U53A G84U A107G G141U,≤ -4.2
16,A52G U53A G92A U148G,≤ -4.2
17,A52G U53G,-3.21
18,A52G U53G A106C A119U G136U,≤ -4.2
19,A52G U53G C57G G68C G81C C87U G140U,≤ -4.2
20,A52G U53G G67U C93G A110G,≤ -4.2
21,A52G U55A G58U A60U G80C G117U C125A G133U,≤ -4.2

row,Variant,polymerase ribozyme fitness (log ratio)
1,A52G U56A C75U C95G C96G A97C A113G U145G,≤ -4.2
2,A52G U56A C85A G94C C99G U104G G136A,≤ -4.2
3,A52G U56A G68U C87A U145G,≤ -4.2
4,A52G U56C G62C C87U C96U,≤ -4.2
5,A52G U56G A73G G84A A107U A113C,≤ -4.2
6,A52G U61C U77C G84C,≤ -4.2
7,A52G U77G A91C,≤ -4.2
8,A52G U77G A97G C116U,≤ -4.2
9,A52G U77G G84U,≤ -4.2
10,A52G U90A G92C C114U U148C,≤ -4.2
11,A52G U111G U139C G140C G143U,≤ -4.2
12,A52G U148G,-4.18
13,A52U A60G C76U A89U C96U,-3.8
14,A52U A66G G88A G92U C105U U139A,≤ -4.2
15,A52U A73G A91U G143U,≤ -4.2
16,A52U A89U C96A,-2.98
17,A52U A137G,-2.89
18,A52U C57G C87U C116U G128A,≤ -4.2
19,A52U C69G G136U,≤ -4.2
20,A52U C69U G94C U127A G133U,≤ -4.2
